Reference: US11365205B2 (Aurigene Discovery Technologies Limited, priority 2018, dated 2022)

Molecular target: PRMT5/MEP50 Complex (Homo sapiens (Human), UniProt O14744)
Assay: PRMT5 inhibition based on TR-FRET assay
Format: biochemical
Conditions: 32 nM PRMT5:MEP50, 50 nM Histone-H4 peptide, 1 μM SAM
Description: PRMT5 Inhibition Based on TR-FRET Assay:
Protein arginine methyltransferase 5 (PRMT5) is a type II arginine methyltransferase that catalyze mono- and symmetric demethylation on arginine residues of histone or non-histone proteins in presence of S-adenosylmethionine (AdoMet or SAM) a cofactor responsible for donating the methyl group. PRMT5 is reported to be overexpressed in several human cancers. To identify compounds that inhibit the PRMT5 and decrease its activity, a TR-FRET based assay has been established. Time-resolved fluorescence resonance energy transfer (TR-FRET) HTS assays are homogeneous proximity assays where the interaction of two dye-labeled binding partners is detected by the energy transfer between a donor and an acceptor dye and the subsequent light emission by the acceptor dye. PRMT5 catalyzes Histone H4 peptide which is biotin tagged to the Lysine amino acid at carboxyl end, in presence of S-adenosyl-1-methionine (SAM) to methylate the peptide. The antibody specific to mono methylated H4 peptide (H4R3) with Ig conjugate binds to the methylated peptide, indirectly binding to the Europium lanthanide. […]
The compound dilutions were prepared as 7.5% DMSO stock solutions in assay buffer. […] The plates were then read on Victor-3 with Excitation at 340 nm and Emissions collected at 615 and 665 nm in TR-FRET protocol. […]

Sequence of UniProt O14744 (O14744 whole entry): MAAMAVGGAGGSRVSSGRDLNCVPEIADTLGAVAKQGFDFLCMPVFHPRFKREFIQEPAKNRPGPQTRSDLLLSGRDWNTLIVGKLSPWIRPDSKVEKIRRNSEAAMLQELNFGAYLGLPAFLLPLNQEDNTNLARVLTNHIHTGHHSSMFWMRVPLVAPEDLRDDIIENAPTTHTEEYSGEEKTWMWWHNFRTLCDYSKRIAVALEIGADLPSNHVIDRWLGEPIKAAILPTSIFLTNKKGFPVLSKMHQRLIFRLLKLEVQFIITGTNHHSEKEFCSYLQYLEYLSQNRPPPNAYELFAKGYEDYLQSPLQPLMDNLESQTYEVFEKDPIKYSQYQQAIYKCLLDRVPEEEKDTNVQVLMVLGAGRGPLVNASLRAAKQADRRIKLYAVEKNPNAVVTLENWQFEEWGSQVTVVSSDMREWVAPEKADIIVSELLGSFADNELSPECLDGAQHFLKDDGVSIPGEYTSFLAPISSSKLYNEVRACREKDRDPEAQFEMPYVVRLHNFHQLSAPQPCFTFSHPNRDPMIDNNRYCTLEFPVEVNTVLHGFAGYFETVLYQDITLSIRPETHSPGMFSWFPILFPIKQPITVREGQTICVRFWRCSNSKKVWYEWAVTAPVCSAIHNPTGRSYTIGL
Sequence of UniProt O14744 (Q9BQA1 whole entry partner): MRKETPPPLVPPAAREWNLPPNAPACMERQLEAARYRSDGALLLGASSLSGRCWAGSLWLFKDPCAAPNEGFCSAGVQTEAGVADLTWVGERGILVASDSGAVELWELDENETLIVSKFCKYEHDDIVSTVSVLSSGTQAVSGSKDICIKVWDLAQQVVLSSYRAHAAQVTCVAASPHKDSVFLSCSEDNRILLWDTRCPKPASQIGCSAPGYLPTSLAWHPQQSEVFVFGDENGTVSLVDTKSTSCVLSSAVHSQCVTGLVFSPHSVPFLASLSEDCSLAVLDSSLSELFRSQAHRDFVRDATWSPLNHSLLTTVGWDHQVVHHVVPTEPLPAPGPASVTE

IC50 [nM]	Structure (SMILES)
220	CS(=O)(=O)c1ccc(CN2CCN(CC(O)CN3CCc4ccccc4C3)C2=O)cc1 (centres unmarked) [Example 11, 1-(3-(3,4-Dihydroisoquinolin-2(1H)-yl)-2-hydroxypropyl)-3-(4-(methyl-sulfonyl)benzyl)imidazolidin-2-one]
310	Cc1ccc(CN2CCN(CC(O)CN3CCc4ccccc4C3)C2=O)cc1 (centres unmarked) [Example 15, 1-(3-(3,4-Dihydroisoquinolin-2(1H)-yl)-2-hydroxypropyl)-3-(4-methyl-benzyl)imidazolidin-2-one]
